# Data taken from PubChem BioAssay (Tox21).
# “And” between values parts separate entries of the source, which are not always exact repeats. Equal entries are not always repeated. The inconclusive results got no clear call from the source; some entries with a clear call stand among them for comparison. Potencies of inconclusive entries are doubtful fits and often do not repeat. The source made the active and inactive calls. Unless noted, calls follow the shape of the dose curve; as a rule, active = well fitted inhibition curve with a large enough effect in the signal ratio in the repeat runs; inconclusive = weak or mixed curves, or effect the other way; inactive = flat fitted curve, though single readings scatter; the % refers to the signal ratio.
# Assay: qHTS assay for small molecule disruptors of the mitochondrial membrane potential - cell viability (AID 720634; calls by dose curve; also: nearly all actives have a fitted effect of over 20% in size;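 as to activity change, negative = cytotoxicity: human HepG2 liver cancer cells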)
# Conditions: HepG2 viability, ATP luminescence (CellTiter-Glo), 1 h; series mostly up to 83.2 µM; activity change, negative = cytotoxicity: at the top concentration
# Summary of the method: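 ATP-based luminescent viability readout (CellTiter-Glo, 30 min, room temperature) in HepG2 cells multiplexed with the m-MPI membrane potential dye; compound exposure lasted 1 hr at 37 C.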
# % is scaled to controls: 0 for no effect and ±100 for the full control effect; potency is read from the fitted curve at half-maximal effect; tags tell the direction and shape of the fitted curve or compound fluorescence and quenching.
Compound,Potency,"activity change, negative = cytotoxicity"
C=CC(=O)OCC(CO)(COC(=O)C=C)COC(=O)C=C,"inconclusive: 68.8 µM [cytotoxic, single point] and inconclusive: 77 µM [cytotoxic, single point]",–
CCC(C)c1ccccc1O (stereo not given),"inconclusive: 68.1 µM [cytotoxic, partial curve, poor fit]",–
C[C@H](CCC(=O)O)[C@H]1CC[C@H]2[C@@H]3CC[C@@H]4C[C@H](O)CC[C@]4(C)[C@H]3CC[C@]12C,"inconclusive: 68.3 µM [cytotoxic, partial curve, poor fit] and inconclusive: 68.6 µM [cytotoxic, partial curve, poor fit]",–
CN1C(C(=O)Nc2ccccn2)=C(O)c2ccccc2S1(=O)=O,inactive,–
COc1cc(CNC(=O)CCCC/C=C/C(C)C)ccc1O,"inconclusive: 53 µM [cytotoxic, partial curve, poor fit]",–
C=C(C)C(=O)OCCC[Si](Cl)(Cl)Cl,"inconclusive: 69.2 µM [cytotoxic, single point]",–
Cc1ncc([N+](=O)[O-])n1CC(O)CCl (stereo not given),–,inactive: 2.95% [at 39.1 µM]
CCC1COC(=O)O1 (stereo not given),–,inactive: 10.4%
CCO[C@@H]1O[C@H](C(COCc2ccccc2)OCc2ccccc2)[C@H](OCc2ccccc2)[C@H]1O (stereo not given in full),"inconclusive: 5.07 µM [cytotoxic, partial curve, poor fit]",–

# Assay: qHTS assay for small molecule disruptors of the mitochondrial membrane potential (AID 720635)
# Conditions: HepG2 mitochondrial membrane potential, Mito-MPS dye ratio; ratio activity, negative = MMP loss: at 83.2 µM (top of the series) unless noted
# Summary of the method: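 HepG2 cells (2,000/well) attached overnight at 37C, then took compound for 1 hr at 37C, 5% CO2. Mito-MPS dye was added for 30 min; fluorescence was read at 490/535 nm (monomers) and 540/590 nm (aggregates).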
Compound,"ratio activity, negative = MMP loss",Potency
CCCCCCN,inconclusive: 9.46%,–
CC(C)(C)c1cc(CCC(=O)OCC(COC(=O)CCc2cc(C(C)(C)C)c(O)c(C(C)(C)C)c2)(COC(=O)CCc2cc(C(C)(C)C)c(O)c(C(C)(C)C)c2)COC(=O)CCc2cc(C(C)(C)C)c(O)c(C(C)(C)C)c2)cc(C(C)(C)C)c1O,–,"inconclusive: 5.81 µM [activator, full curve]"
O=C(c1ccccc1)c1cc(Cl)ccc1O,–,active: 25.9 µM
O=C(O)C(c1ccc(Cl)cc1)c1ccc(Cl)cc1,inconclusive: -31.1%,–
CN1CCC(N(Cc2cccs2)c2ccccc2)CC1,–,"inconclusive: 15 µM [activator, partial curve]"
C=CC(=O)OCC(CO)(COC(=O)C=C)COC(=O)C=C,–,"inconclusive: 10.9 µM [activator, full curve, poor fit] and inconclusive: 2.17 µM [inhibitor, full curve, poor fit]"
CCCC(C)C(=O)OCC (stereo not given),inactive: 11%,–
CCC(C)c1ccccc1O (stereo not given),–,active: 54.1 µM and active: 30.6 µM
O=C1OC(OC(=O)c2cccnc2Nc2cccc(C(F)(F)F)c2)c2ccccc21 (stereo not given),–,active: 24.8 µM
Cc1oc(=O)oc1CN1CCN(c2cc3c(cc2F)c(=O)c(C(=O)O)c2n3C(C)S2)CC1 (stereo not given),–,"inconclusive: 11.9 µM [activator, partial curve]"
CCCC(=O)O,–,"inconclusive: 1.54 µM [activator, full curve, poor fit]"
OC[C@]1(O)OC[C@@H](O)[C@H](O)[C@@H]1O,–,inactive
C[C@H](CCC(=O)O)[C@H]1CC[C@H]2[C@@H]3CC[C@@H]4C[C@H](O)CC[C@]4(C)[C@H]3CC[C@]12C,–,"active: 60.9 µM and inconclusive: 61.1 µM [inhibitor, single point]"
CCCCOCC(C)OCC(C)O (stereo not given),inactive: 16.9% [at 95.3 µM],–
O=C(OCc1ccccc1)c1ccccc1O,–,"inconclusive: 27.1 µM [inhibitor, partial curve] and active: 61.1 µM"
O=C(O)c1ccccc1Cl,inconclusive: -23.4%,–
NNc1ccc(C(=O)O)cc1,inconclusive: 0.376% [at 95.3 µM] and inconclusive: 7.91% [at 95.3 µM],–
COc1cc(CNC(=O)CCCC/C=C/C(C)C)ccc1O,inconclusive: -11.2% and inconclusive: -29.2%,–

Compound,"ratio activity, negative = MMP loss",Potency
COc1ccc(Br)c(C)c1,inactive: 17.7% [at 95.3 µM],–
CCCCCCCCCOC(=O)CCCCC(=O)OCCCCCCC,inconclusive: 14.1%,–
CCN(CC)c1cccc(O)c1,–,"inconclusive: 62.4 µM [inhibitor, partial curve, poor fit]"
CCCCC/C=C\C/C=C\CCCCCCCC(=O)NC(C)c1ccccc1 (stereo not given),inactive: 16.3%,–
Cc1ncc([N+](=O)[O-])n1CC(O)CCl (stereo not given),inconclusive: 11.8% [at 39.1 µM],–
NNc1nc(-c2ccc(N)cc2)cs1,–,active: 0.0545 µM
CC(=O)c1ccccc1,inconclusive: 10.5%,–
CO[C@@H]1COCC[C@@H]1N[C@@H]1CC[C@@](C(=O)N2CCc3ncc(C(F)(F)F)cc3C2)(C(C)C)C1,inconclusive: 16.1%,–
O=C1c2ccccc2-c2ccccc21,–,active: 55.9 µM
O=C1c2ccccc2C(=O)c2cc(Cl)ccc21,–,inconclusive: 2.12 µM [inhibitor]
CCCCCCCCCI,inactive: -14.8% [at 95.3 µM],–
CC(C)C(O)C(C)(C)CO (stereo not given),inactive: 11.5% [at 95.3 µM],–
O=c1[nH]cnc2[nH]ncc12,inconclusive: 1.14%,–
CC(C)NCC(O)COc1cccc2[nH]ccc12 (stereo not given),inactive: 12.4%,–
CCO[C@@H]1O[C@H](C(COCc2ccccc2)OCc2ccccc2)[C@H](OCc2ccccc2)[C@H]1O (stereo not given in full),–,active: 11.4 µM
CC(C)Nc1ccccc1,inactive: 18.7%,–
c1ccc(CNCCNCc2ccccc2)cc1,inconclusive: 31.4%,–
O=C(O)c1cccc(N(Cc2cccnc2)c2ccc(OC(F)F)c(OC(F)F)c2)c1,–,"inconclusive: 1.37 µM [activator, full curve, poor fit]"
